In the supplement of paper PMC3334620:
In all, about 33,000 sequences were measured (“E-score (-0.5 to 0.5)”: median about -0.056, highest 2% from about 0.38 on). This is one part of the list.

Target: Stb4 (UniProt P50104)
Assay: PBM E-score (8-mer binding enrichment) (E-score (-0.5 to 0.5)); higher = stronger / more preferred TF binding; most listed sequences are background and not binding sites
Conditions: protein concentration: 200 nM; construct: GST-DNA-binding domain
Procedure, shortened: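 Masliner-normalised scans of fluorescent anti-GST signal were the basis for scoring. That signal came from GST-tagged yeast transcription factors applied at about 100-200 nM to double-stranded universal all-10-mer Agilent arrays on fresh or once-stripped slides. Each ungapped eight-base word, pooled with its reverse complement, received an E-score from the Universal PBM Analysis Suite.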

Row | Sequence | PBM E-score
1 | GTAGCAAC | -0.0718
2 | CACGTTGG | -0.375
3 | AACAGGCA | -0.151
4 | CTTACACA | -0.127
5 | GTCACCCA | -0.111
6 | GTCCACAC | 0.0281
7 | CTGGAATA | -0.00819
8 | ACTGAGTA | -0.22
9 | GATATATC | 0.273
10 | AAGACCAG | -0.132
11 | AACTACGC | -0.0133
12 | GGGTGCCA | 0.0454
13 | TGCTCCCA | -0.129
14 | AGCCACCG | 0.0559
15 | CTAGGTCC | 0.00508
16 | GAACACCC | 0.243
17 | GCGACAGA | -0.077
18 | CTACAAAA | 0.097
19 | GCAGCTGA | -0.0264
20 | AATCTTTG | -0.0949
21 | TTGTACAA | -0.126
22 | AGGTAAAA | -0.0776

Row | Sequence | PBM E-score
23 | AGTAAAGA | -0.00352
24 | AATTTATC | 0.141
25 | ACCTGGAC | -0.253
26 | CTAGATAC | 0.0146
27 | AATCGGAG | 0.277
28 | AAAACTAT | 0.0898
29 | CAAGACAA | -0.0433
30 | CTGGTACA | -0.196
31 | GGGGACTA | -0.116
32 | GAAAGGCC | 0.0551
33 | GGGAACCA | -0.0292
34 | CAAAACAG | -0.0551
35 | GAAGTCGA | -0.0731
36 | AACTGTTG | -0.176
37 | GATTCCCC | 0.0429
38 | ATGGTTTG | 0.117
39 | ATAGCAGA | -0.173
40 | AAGCCGCA | 0.167
41 | GCTCTCAA | -0.131
42 | AGCCAAGC | -0.159
43 | CTCGTAAG | 0.0335
44 | GCATGTAC | -0.0718

Row | Sequence | PBM E-score
45 | GGTGAGCA | -0.192
46 | CATAGCAA | -0.205
47 | CCTTACTC | 0.132
48 | GCGGTGGA | -0.0863
49 | AGGCGGAT | 0.303
50 | CACTTCTC | -0.172
51 | ATTGCGAC | 0.141
52 | CGGCTGAG | 0.167
53 | CTCCCGAG | 0.445
54 | AGCTTATC | 0.0792
55 | CGAGTGCA | 0.162
56 | CCTAGGCA | -0.153
57 | CAGTAAAC | -0.0736
58 | ACGTTAGC | -0.0056
59 | ATGTACTG | -0.187
60 | CTCAGGTA | -0.248
61 | ACGGCTCC | 0.194
62 | GAGGCCTC | 0.157
63 | ACAACGAC | 0.0401
64 | ATTAATAC | 0.0707
65 | ATATTAAA | 0.166
66 | CTTTACGA | -0.204

Row | Sequence | PBM E-score
67 | CGGTACCA | 0.22
68 | TGTTAAAA | -0.126
69 | CCTGAAGC | -0.187
70 | AAAAAGGA | 0.0442
71 | AAGTCCTG | -0.237
72 | TAAGGTGA | -0.055
73 | ACGCAGGC | -0.0917
74 | CGAAGTAG | 0.0873
75 | CTACACAA | 0.0728
76 | GGCACCCA | 0.0647
77 | ATAGCCGG | 0.353
78 | CCTCCATA | -0.12
79 | CGCTCCCA | -0.0934
80 | CCTAACTA | -0.0596
81 | CGAGTTAG | 0.04
82 | GACAGGGA | -0.221
83 | AAAGCGTT | -0.138
84 | CCCGTAGG | 0.0737
85 | ATGAATCG | 0.0841
86 | GAAAGCAC | -0.101
87 | AGCGGGAC | 0.18
88 | GATTACGA | -0.02

Row | Sequence | PBM E-score
89 | GCAGTGGA | -0.0591
90 | ACACTTAG | -0.0398
91 | GACTGCCC | -0.0508
92 | GATGGAGC | -0.0181
93 | AAGGCTAA | -0.192
94 | ACATTCTG | -0.218
95 | CAAGAGTC | -0.0617
96 | CCCAGATC | 0.00073
97 | GTTTGTAA | 0.0936
98 | ATGGAAAC | -0.062
99 | CAGACAAA | -0.145
100 | CACTGGGG | -0.195
101 | GCATAACC | 0.0415
102 | ATACCCGG | 0.391
103 | GCGTCGTA | 0.0854
104 | CCTGCAGA | -0.119
105 | CACAATGC | -0.0921
106 | AACCGCCC | 0.0471
107 | CACGGCTA | 0.299
108 | ACTAGCTA | -0.0294
109 | AGGGCTAA | -0.0922
